No constants are given. Whether binding was seen depends on the method and setting. Some results given as binding are weak or reduced against the parent protein; the word gives no strength. Sequences can lack the tags named with a protein.
B1: full-length Utp18, two-hybrid fusion (protein, UniProt P40362 1-594)
chain: MTMATTAMNVSVPPPDEEEQLLAKFVFGDTTDLQENLAKFNADFIFNEQEMDVEDQEDEGSESDNSEEDEAQNGELDHVNNDQLFFVDDGGNEDSQDKNEDTMDVDDEDDSSSDDYSEDSEEAAWIDSDDEKIKVPILVTNKTKKLRTSYNESKINGVHYINRLRSQFEKIYPRPKWVDDESDSELDDEEDDEEEGSNNVINGDINALTKILSTTYNYKDTLSNSKLLPPKKLDIVRLKDANASHPSHSAIQSLSFHPSKPLLLTGGYDKTLRIYHIDGKTNHLVTSLHLVGSPIQTCTFYTSLSNQNQQNIFTAGRRRYMHSWDLSLENLTHSQTAKIEKFSRLYGHESTQRSFENFKVAHLQNSQTNSVHGIVLLQGNNGWINILHSTSGLWLMGCKIEGVITDFCIDYQPISRGKFRTILIAVNAYGEVWEFDLNKNGHVIRRWKDQGGVGITKIQVGGGTTTTCPALQISKIKQNRWLAVGSESGFVNLYDRNNAMTSSTPTPVAALDQLTTTISNLQFSPDGQILCMASRAVKDALRLVHLPSCSVFSNWPTSGTPLGKVTSVAFSPSGGLLAVGNEQGKVRLWKLNHY
B2: Utp18 residues 101–190, two-hybrid fusion (domain or fragment, UniProt P40362 101-190)
chain: DTMDVDDEDDSSSDDYSEDSEEAAWIDSDDEKIKVPILVTNKTKKLRTSYNESKINGVHYINRLRSQFEKIYPRPKWVDDESDSELDDEE
B3: His6-Smt3-Utp18 100–190 (domain or fragment, yeast (S. cerevisiae), UniProt P40362 100-190, looked up)
chain: EDTMDVDDEDDSSSDDYSEDSEEAAWIDSDDEKIKVPILVTNKTKKLRTSYNESKINGVHYINRLRSQFEKIYPRPKWVDDESDSELDDEE
notes: Utp18, yeast (S. cerevisiae), residues 100–190; source: expressed from pET28a, purified (HisTrap and Q chromatography); not shown: His6, N-terminal, kept; Smt3, N-terminal, kept
B4: His6-Smt3-Utp18 100–139 (domain or fragment, yeast (S. cerevisiae), UniProt P40362 100-139, looked up)
chain: EDTMDVDDEDDSSSDDYSEDSEEAAWIDSDDEKIKVPILV
notes: Utp18, yeast (S. cerevisiae), residues 100–139; source: expressed from pET28a, purified (HisTrap and Q chromatography); not shown: His6, N-terminal, kept; Smt3, N-terminal, kept
B5: His6-Smt3-Utp18 139–190 (domain or fragment, yeast (S. cerevisiae), UniProt P40362 139-190, looked up)
chain: VTNKTKKLRTSYNESKINGVHYINRLRSQFEKIYPRPKWVDDESDSELDDEE
notes: Utp18, yeast (S. cerevisiae), residues 139–190; source: expressed from pET28a, purified (HisTrap and Q chromatography); not shown: His6, N-terminal, kept; Smt3, N-terminal, kept
B6: Utp18 residues 1–100, two-hybrid fusion (domain or fragment, UniProt P40362 1-100)
chain: MTMATTAMNVSVPPPDEEEQLLAKFVFGDTTDLQENLAKFNADFIFNEQEMDVEDQEDEGSESDNSEEDEAQNGELDHVNNDQLFFVDDGGNEDSQDKNE
B7: Utp18 isolated WD domain (residues 191–594), two-hybrid fusion (domain or fragment, UniProt P40362 191-594)
chain: DDEEEGSNNVINGDINALTKILSTTYNYKDTLSNSKLLPPKKLDIVRLKDANASHPSHSAIQSLSFHPSKPLLLTGGYDKTLRIYHIDGKTNHLVTSLHLVGSPIQTCTFYTSLSNQNQQNIFTAGRRRYMHSWDLSLENLTHSQTAKIEKFSRLYGHESTQRSFENFKVAHLQNSQTNSVHGIVLLQGNNGWINILHSTSGLWLMGCKIEGVITDFCIDYQPISRGKFRTILIAVNAYGEVWEFDLNKNGHVIRRWKDQGGVGITKIQVGGGTTTTCPALQISKIKQNRWLAVGSESGFVNLYDRNNAMTSSTPTPVAALDQLTTTISNLQFSPDGQILCMASRAVKDALRLVHLPSCSVFSNWPTSGTPLGKVTSVAFSPSGGLLAVGNEQGKVRLWKLNHY

How the values were obtained:
[1] = target: T1, Utp21 (full-length, two-hybrid fusion) (yeast (S. cerevisiae)) (UniProt Q06078); test: two-hybrid; … GAL4 system, genes fused to AD and BD, co-expressed in AH109 cells; SC-Leu-Trp-His (low stringency), with 5 mM 3-AT, and SC-Leu-Trp-His-Ade (high stringency); 30°C, 3 d
T1 sequence: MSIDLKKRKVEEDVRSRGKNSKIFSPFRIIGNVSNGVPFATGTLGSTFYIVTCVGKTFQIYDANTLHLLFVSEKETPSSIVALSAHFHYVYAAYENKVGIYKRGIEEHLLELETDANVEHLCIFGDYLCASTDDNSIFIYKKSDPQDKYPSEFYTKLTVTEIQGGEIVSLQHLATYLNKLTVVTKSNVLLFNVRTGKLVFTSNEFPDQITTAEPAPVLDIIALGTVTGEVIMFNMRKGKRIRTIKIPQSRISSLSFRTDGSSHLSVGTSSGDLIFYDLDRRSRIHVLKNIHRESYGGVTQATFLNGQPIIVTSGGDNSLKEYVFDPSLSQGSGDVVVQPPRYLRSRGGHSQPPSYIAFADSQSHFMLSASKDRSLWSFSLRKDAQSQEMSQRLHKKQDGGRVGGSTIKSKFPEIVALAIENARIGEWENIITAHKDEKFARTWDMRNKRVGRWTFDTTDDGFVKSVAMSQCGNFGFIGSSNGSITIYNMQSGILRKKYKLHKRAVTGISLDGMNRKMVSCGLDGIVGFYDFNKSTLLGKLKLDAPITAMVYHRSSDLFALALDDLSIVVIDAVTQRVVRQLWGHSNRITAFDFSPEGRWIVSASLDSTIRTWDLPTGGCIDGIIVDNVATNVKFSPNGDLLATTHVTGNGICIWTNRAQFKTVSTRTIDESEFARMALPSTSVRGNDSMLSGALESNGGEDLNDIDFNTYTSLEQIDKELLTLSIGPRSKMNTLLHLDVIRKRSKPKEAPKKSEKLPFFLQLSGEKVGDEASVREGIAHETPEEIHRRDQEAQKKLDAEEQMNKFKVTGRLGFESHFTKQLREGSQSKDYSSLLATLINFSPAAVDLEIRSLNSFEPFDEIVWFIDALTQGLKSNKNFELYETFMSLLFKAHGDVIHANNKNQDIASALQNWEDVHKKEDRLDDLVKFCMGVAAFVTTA

[2] = target: T2, Utp21 CTD (residues 684–939), two-hybrid fusion (yeast (S. cerevisiae)) (UniProt Q06078); test: as above
T2 sequence: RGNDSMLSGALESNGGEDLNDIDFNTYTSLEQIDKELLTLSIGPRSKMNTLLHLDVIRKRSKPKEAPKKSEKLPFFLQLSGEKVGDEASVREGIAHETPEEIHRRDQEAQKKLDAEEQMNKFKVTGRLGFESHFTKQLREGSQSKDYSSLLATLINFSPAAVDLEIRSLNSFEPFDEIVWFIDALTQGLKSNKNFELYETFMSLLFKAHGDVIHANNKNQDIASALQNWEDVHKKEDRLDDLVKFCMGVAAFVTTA

[3] = target: T3, Utp21 tandem WD domain (residues 1–683), two-hybrid fusion (yeast (S. cerevisiae)) (UniProt Q06078); test: as above
T3 sequence: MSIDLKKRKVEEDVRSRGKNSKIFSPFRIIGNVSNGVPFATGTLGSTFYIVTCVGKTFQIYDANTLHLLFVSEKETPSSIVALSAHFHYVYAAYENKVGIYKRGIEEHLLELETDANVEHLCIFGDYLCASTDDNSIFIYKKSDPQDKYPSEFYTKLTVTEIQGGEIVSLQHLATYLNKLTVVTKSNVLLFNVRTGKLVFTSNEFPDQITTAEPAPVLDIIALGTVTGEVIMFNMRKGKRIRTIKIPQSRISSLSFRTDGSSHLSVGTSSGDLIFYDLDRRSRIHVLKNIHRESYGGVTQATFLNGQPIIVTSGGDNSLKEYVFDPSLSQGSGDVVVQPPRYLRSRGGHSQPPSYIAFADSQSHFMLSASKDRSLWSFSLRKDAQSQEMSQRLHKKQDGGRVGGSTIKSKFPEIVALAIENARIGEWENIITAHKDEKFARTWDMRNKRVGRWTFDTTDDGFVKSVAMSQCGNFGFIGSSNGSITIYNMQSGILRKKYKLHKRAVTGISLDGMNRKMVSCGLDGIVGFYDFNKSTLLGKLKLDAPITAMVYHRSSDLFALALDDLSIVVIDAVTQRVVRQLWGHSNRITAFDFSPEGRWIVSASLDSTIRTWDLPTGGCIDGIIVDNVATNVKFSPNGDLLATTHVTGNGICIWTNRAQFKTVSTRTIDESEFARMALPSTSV

[4] = target: T4, GST-Utp21 1–684 (co-expressed with a Utp18 fragment) (yeast (S. cerevisiae)) (UniProt Q06078); test: co-purification (glutathione affinity, then SEC); GST-Utp21 1–684 and a His6-Smt3-Utp18 fragment co-expressed in E. coli BL21(DE3); His6-Smt3 cleaved with Ulp1 in the lysate; Glutathione Sepharose in 25 mM Tris-HCl pH 7.5, 500 mM NaCl; on-bead PreScission cleavage; Superdex 200 in 10 mM Tris-HCl pH 7.5, 200 mM NaCl
T4 sequence: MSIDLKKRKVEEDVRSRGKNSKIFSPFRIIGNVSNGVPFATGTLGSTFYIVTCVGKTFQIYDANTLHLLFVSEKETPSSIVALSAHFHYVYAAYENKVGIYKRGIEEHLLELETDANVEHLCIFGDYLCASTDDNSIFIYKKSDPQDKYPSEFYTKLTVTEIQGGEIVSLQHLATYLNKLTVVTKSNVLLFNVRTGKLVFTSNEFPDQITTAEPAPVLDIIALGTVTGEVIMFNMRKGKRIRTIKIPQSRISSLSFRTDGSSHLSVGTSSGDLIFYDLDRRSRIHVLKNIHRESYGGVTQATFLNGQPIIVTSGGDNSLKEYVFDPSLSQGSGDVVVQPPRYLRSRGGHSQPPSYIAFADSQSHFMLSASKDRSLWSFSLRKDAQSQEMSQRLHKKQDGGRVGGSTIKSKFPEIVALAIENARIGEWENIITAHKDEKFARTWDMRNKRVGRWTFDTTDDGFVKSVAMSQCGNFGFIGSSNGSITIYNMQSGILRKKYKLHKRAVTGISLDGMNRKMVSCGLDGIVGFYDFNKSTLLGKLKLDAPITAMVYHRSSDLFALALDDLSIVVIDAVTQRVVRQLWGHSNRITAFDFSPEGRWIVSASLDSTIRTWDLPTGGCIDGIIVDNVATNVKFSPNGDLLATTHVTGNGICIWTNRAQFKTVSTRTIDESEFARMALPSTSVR

Row | Binder | binding [1] | binding [4] | further results
1 | B1 | binds |  | binding [2]: no binding; binding [3]: binds
2 | B2 | binds |  | 
3 | B3 |  | binds | 
4 | B4 |  | binds | 
5 | B5 |  | binds | 
6 | B6 | no binding |  | 
7 | B7 | no binding |  | 
